# In all, about 52,000 compounds went through this assay and about 1,700 (3.3%) were called active. No stated cut-off is given here; in the data, active means survival mostly below about 52% (no sharp cut-off); inactive means mostly above about 56%. The list shows a part of the results.
# Test system: Wild type
# Test: S. aureus survival, RN4220 and DeltatarO strains – OD600, teichoic acid synthesis inhibitors, primary screen (AID 463173)
# Details: S. aureus RN4220 wild type/DeltatarO growth, OD600, 18 h, stronger effect = lower value, screened at 18.75 µg/mL (by protocol)
row,Structure (SMILES),survival
1,COC(=O)c1sccc1S(=O)(=O)N1CCN(c2cc(Cl)ccc2C)CC1,inactive: 51%
2,COC(=O)C(Cc1c[nH]c2ccccc12)NC(=O)COc1cccc(C)c1 (centres undefined),inactive: 88%
3,Cc1ccc(Cl)cc1N1CCN(C(=O)c2ccc(NC(=O)c3nsc4ccccc34)cc2)CC1,active: 1%
4,CCOC(=O)COc1ccc(CC)cc1C(=O)c1ccn2nc(-c3ccccc3)cc2n1,inactive: 68%
5,Cc1ccc(NC(=O)c2oc3ccc(S(=O)(=O)N4CCC5(CC4)OCCO5)cc3c2C)cc1C,inactive: 124%
6,Cc1ccc(-c2n[nH]c3c2C(c2ccc(C(C)(C)C)cc2)NC3=O)cc1 (centres undefined),inactive: 125%
7,Cc1nn(S(=O)(=O)c2ccc(C(C)(C)C)cc2)c(C)c1S(=O)(=O)N1CCCCCC1,inactive: 59%
8,COCCNC(=O)CCn1c(=O)c2cc(OC)c(OC)cc2n(CC(=O)Nc2ccc(Cl)cc2F)c1=O,inactive: 72%
9,CCC1CN(C(=O)N2CCC(C(=O)NCc3ccc(N(C)C)cc3)CC2)c2ccccc2O1 (centres undefined),inactive: 105%
10,Cc1cccc(-c2cc3nc(-c4ccccc4)cc(=O)n3[nH]2)c1,inactive: 93%
11,CCOC(=O)c1ccc(N2CCN(c3cc(C)ccc3C)CC2)c(NC(=O)Nc2ccc(CC)cc2)c1,inactive: 63%
12,CCCCC(=O)NCc1nc2cccnc2n1Cc1ccc(OC)cc1,inactive: 76%
13,COc1cccc(Nc2ccc3cc(S(=O)(=O)N4CCC(C)CC4)ccc3n2)c1,inactive: 63%
14,Cc1cn2c(=O)cc(COC(=O)c3cccc(NC(=O)c4ccc(C(C)(C)C)cc4)c3)nc2s1,inactive: 101%
15,CCn1cc2nc(SCC(=O)Nc3ccc(OC)c(OC)c3)n(Cc3ccc(Cl)cc3)c(=O)c2n1,inactive: 57%
16,CC(=O)c1cccc(NC(=O)C2CCN(C(=O)c3cnn(-c4ccccc4)c3-n3cccc3)CC2)c1,inactive: 128%
17,Cc1c(C(=O)NCc2ccccc2Cl)sc2nc3n(c(=O)c12)CCCCC3,inactive: 104%
18,Cc1ccccc1-c1nc2scc(CCNS(=O)(=O)c3ccccc3)n2n1,inactive: 81%
19,Cc1nn2c(=O)cc(COC(=O)c3cccc(NC(=O)CCc4ccccc4)c3)nc2s1,inactive: 71%
20,COc1ccc(-c2cc(-c3ccc(F)cc3)nc3c2COc2ccc(F)cc2-3)cc1,inactive: 68%
21,CCOc1ccc(-n2c(/C=C/c3cccc(F)c3)nc3cc(OC)c(OC)cc3c2=O)cc1,inactive: 102%
22,COc1ccc(-c2oc3ncn4nc(-c5ccccc5O)nc4c3c2-c2ccc(OC)cc2)cc1,inactive: 67%
23,O=C(NCc1ccccc1)C1CCCN(S(=O)(=O)c2cccc3nsnc23)C1 (centres undefined),inactive: 96%

row,Structure (SMILES),survival
1,CC(C)(C)OC(=O)N1CCC(c2c(C(=O)Nc3ccc4c(c3)OCCO4)cnn2-c2ccc(Cl)cc2)CC1,inactive: 112%
2,O=C1CN(C(=O)COc2ccc(Cl)cc2)C(c2ccccc2)c2cc(Br)ccc2N1 (centres undefined),inactive: 72%
3,CCOc1ccc(NC(=O)CN2C(=O)CC(C)Sc3ccccc32)cc1 (centres undefined),inactive: 86%
4,COc1ccc(CCNC(=O)C(CC(C)C)N2Cc3ccccc3C2=O)c(OC)c1OC (centres undefined),inactive: 78%
5,CCn1cc(CCC(=O)NCc2ccc(C)cc2)c2ccccc21,inactive: 83%
6,Cc1cc(C)nc(NC(=O)COc2ccc(Br)cc2)n1,inactive: 105%
7,Cc1ccc2c(c1)C(Cc1ccccc1F)C(=O)N2 (centres undefined),inactive: 105%
8,Cc1cccc(C(=O)Nc2cc(-c3nc4cccnc4s3)ccc2C)c1,inactive: 86%
9,S=C(NCCCN1CCOCC1)Nc1ccccc1,inactive: 114%
10,COc1ccc(C)cc1NC(=O)C1CCN(S(=O)(=O)c2ccc3[nH]c(=O)oc3c2)CC1,inactive: 59%
11,CC(C)Oc1ccccc1C1C=C(C(=O)O)Nc2ncnn21 (centres undefined),inactive: 126%
12,COc1ccc(CCn2c3c(c(=O)[nH]c2=O)C(NC(=O)c2ccccc2F)(C(F)(F)F)C(=O)N3)cc1OC (centres undefined),inactive: 77%
13,COc1cc2c(=O)n(Cc3ccccc3Cl)c(=O)n(CC(=O)Nc3ccc(C)c(C)c3)c2cc1OC,inactive: 72%
14,COc1ccc(CCCc2nnc(SCC(=O)Nc3cccc(C)c3)o2)cc1,inactive: 84%
15,Cc1nn(CCC(=O)NCc2ccc(Cl)cc2)c(=O)c2nn(-c3ccccc3)c(C)c12,active: -3%
16,COc1ccc(NC(=O)CSc2nc3ccccc3n2CC(=O)N2CCCCC2C)cc1 (centres undefined),inactive: 72%
17,COc1ccc(-c2onc(C)c2C)cc1S(=O)(=O)NCc1ccc(C)o1,inactive: 67%
18,CCOC(=O)c1ccc(-c2ccc(/C=C(\C#N)c3nc4ccc(C)cc4[nH]3)o2)cc1,inactive: 62%
19,COCC(C)NC(=O)c1cc2c(=O)n3cccc(C)c3nc2s1 (centres undefined),inactive: 89%
20,Cc1c(Cl)cccc1NC(=O)CC(c1ccc(F)cc1)N1Cc2ccccc2C1=O (centres undefined),active: 10%
21,CCOc1cccc(CC(=O)NCc2ccc3c(c2)CCN3C(C)=O)c1OCC,inactive: 89%
22,Cc1ccc2[nH]cc(C(c3ccccc3)c3ccc(C)s3)c2c1 (centres undefined),inactive: 46%
23,CCC(C)NC(=O)CCc1c(C)nc2c(c(C)nn2-c2ccc(C)cc2)c1C (centres undefined),inactive: 102%

row,Structure (SMILES),survival
1,CCN(c1ccc(Cl)cc1)S(=O)(=O)c1nnc(NC(=O)c2ccccc2C)s1,inactive: 18%
2,O=C(NCCCc1nc2ccccc2n1Cc1ccccc1Cl)c1ccco1,inactive: 95%
3,CC(=O)Nc1nonc1-c1nc2ccccc2n1Cc1ccc(Cl)cc1Cl,inactive: 100%
4,CC(CNC(=O)C1CCN(C(=O)N2CCOc3ccc(Cl)cc32)CC1)c1ccccc1 (centres undefined),inactive: 80%
5,O=[N+]([O-])c1cc(-c2nc(-c3ccco3)no2)ccc1NCc1ccccc1,inactive: 70%
6,Nn1cnnc1SCC(=O)N(C1CCCCC1)C1CCCCC1,inactive: 107%
7,O=C(CN1CCCC1)Nc1ccc(F)cc1,inactive: 102%
8,COc1ccc(-n2nc(C(=O)N(C)c3cc(Cl)ccc3OC)c3c4ccccc4n(C)c3c2=O)cc1,inactive: 80%
9,COc1ccc(Cn2c(CO)cnc2SCc2ccc(F)cc2)cc1,active: -1%
10,CCc1ccc(Sc2cc(C(=O)O)c3ccccc3n2)cc1,inactive: 70%
11,N#CC1=C2SCN(C3CCCCC3)CN2C(=O)CC1c1c(F)cccc1Cl (centres undefined),inactive: 88%
12,Cc1ccc(Cc2nc3ccccc3nc2SCC(=O)N2CCN(c3ccccc3)CC2)cc1,inactive: 91%
13,Cc1ccc(NC(=O)CC2Nc3cc(C)c(C)cc3NC2=O)c(C)c1 (centres undefined),inactive: 73%
14,CCOc1ccccc1NC(=O)C1=C(C)Nc2ncnn2C1c1ccc(NC(C)=O)cc1 (centres undefined),inactive: 45%
15,COc1ccc(S(=O)(=O)c2nnn(-c3ccccc3F)c2C)cc1,inactive: 78%
16,Cc1nn(CCCC(=O)NCc2ccc(OC(C)C)cc2)c(=O)c2c1sc1ccccc12,inactive: 90%
17,Cc1cccc(CCNC(=O)c2ccc(CSCc3cccc(Cl)c3)o2)c1,inactive: 67%
18,Cc1cccc(N(Cc2cc3ccccc3[nH]c2=O)C(=O)c2cccc(Cl)c2)c1,inactive: 87%
19,CCCn1c(=N)n(CC(O)COc2ccccc2OC)c2ccccc21 (centres undefined),inactive: 66%
20,Cc1ccc(N2CC(NC(=O)CCc3ccccc3)CC2=O)cc1C (centres undefined),inactive: 78%
21,COCCn1c(SCC(=O)Nc2sc(C)c(C)c2C#N)nnc1C(C)C,inactive: 103%
22,Cc1ccc(S(=O)(=O)c2[nH]c(-c3ccccc3)nc2SCCC(=O)O)cc1,inactive: 87%
23,CCOc1ccc(NC(=O)c2c(Nc3ccccc3C)sc(C(=O)c3ccc(Cl)cc3)c2N)cc1,inactive: 131%

row,Structure (SMILES),survival
1,Cc1nn(CC(=O)N2CCN(c3cccc(C(F)(F)F)c3)CC2)c(=O)c2cc3sccc3n12,inactive: 82%
2,O=C(CSc1nnnn1-c1ccc2c(c1)OCCO2)NC1CCCC1,inactive: 111%
3,CCn1ccc2c(OCC(=O)NCc3ccccc3)cccc2c1=O,inactive: 66%
4,CCCN1CCN(c2cc3c(cc2F)c(=O)c(S(=O)(=O)c2ccc(CC)cc2)cn3CC)CC1,inactive: 70%
5,NC(=O)c1ccc(NC(=O)C2CCN(S(=O)(=O)Cc3ccccc3)CC2)cc1,inactive: 91%
6,Cc1ccc(C(=O)O)cc1NC1(c2ccccc2)C(=O)c2ccccc2C1=O,inactive: 131%
7,COc1ccc2oc(-c3ccc(C)c(NC(=O)c4ccc(-c5ccccc5[N+](=O)[O-])o4)c3)nc2c1,inactive: 48%
8,Cc1cccc(-c2nc3c(cnn3-c3ccccc3)c(=O)n2-c2ccc(Br)cc2)c1,inactive: 133%
9,COC(=O)c1ccc(Nc2cc(=O)[nH]c(=O)[nH]2)cc1,inactive: 108%
10,CC(C)(C)C1CCc2nc(NC(=O)c3ccc([N+](=O)[O-])cc3)sc2C1 (centres undefined),inactive: 83%
11,CC1Cn2c(C(=O)NCc3cccc(Br)c3)cc3cccc(c32)S1 (centres undefined),inactive: 82%
12,CCCN(C(=O)C1CC1)c1nnc(-c2ccc(Cl)cc2)s1,inactive: 100%
13,Cc1c(Cl)cccc1NC(=O)CSc1nc2ncccc2o1,active: 1%
14,CN(C)c1ccc(NC(=O)CSc2nc3ccccc3cc2C#N)cc1,inactive: 104%
15,CN1CCN(C(=S)NC(=O)c2ccccc2)CC1,inactive: 125%
16,COc1ccccc1CNC(=O)C1CCCN(c2nnc(C)c3c(C)n(-c4ccccc4)nc23)C1 (centres undefined),inactive: 91%
17,Cc1ccc2[nH]c(CSc3nnc(NC(=O)c4ccccc4F)s3)cc(=O)c2c1,inactive: 75%
18,O=C(CCSCc1cccc(Cl)c1)NCc1ccc(F)cc1Cl,inactive: 66%
19,C=Cc1ccc(Cn2c(=O)cc(C)c3c(C)nn(-c4ccccc4)c32)cc1,active: -1%
20,COc1cc(OC)cc(-c2cc3nc(C)c(CCC(=O)Nc4ccc(C(C)=O)cc4)c(C)n3n2)c1,inactive: 78%
